In publication PMC4336329 (PLoS ONE, 2015):
Among all 310,000 compounds or so, about 2,200 (0.71%) showed an effect of 50% or more. The effect is printed as a negative number. The list shows a part of the results.

biological target: human ether-à-go-go-related gene (hERG) potassium channel (human, UniProt Q12809); assay: primary screen, population patch clamp on CHO cells stably expressing hERG
Sequence (Q12809 whole entry, looked up): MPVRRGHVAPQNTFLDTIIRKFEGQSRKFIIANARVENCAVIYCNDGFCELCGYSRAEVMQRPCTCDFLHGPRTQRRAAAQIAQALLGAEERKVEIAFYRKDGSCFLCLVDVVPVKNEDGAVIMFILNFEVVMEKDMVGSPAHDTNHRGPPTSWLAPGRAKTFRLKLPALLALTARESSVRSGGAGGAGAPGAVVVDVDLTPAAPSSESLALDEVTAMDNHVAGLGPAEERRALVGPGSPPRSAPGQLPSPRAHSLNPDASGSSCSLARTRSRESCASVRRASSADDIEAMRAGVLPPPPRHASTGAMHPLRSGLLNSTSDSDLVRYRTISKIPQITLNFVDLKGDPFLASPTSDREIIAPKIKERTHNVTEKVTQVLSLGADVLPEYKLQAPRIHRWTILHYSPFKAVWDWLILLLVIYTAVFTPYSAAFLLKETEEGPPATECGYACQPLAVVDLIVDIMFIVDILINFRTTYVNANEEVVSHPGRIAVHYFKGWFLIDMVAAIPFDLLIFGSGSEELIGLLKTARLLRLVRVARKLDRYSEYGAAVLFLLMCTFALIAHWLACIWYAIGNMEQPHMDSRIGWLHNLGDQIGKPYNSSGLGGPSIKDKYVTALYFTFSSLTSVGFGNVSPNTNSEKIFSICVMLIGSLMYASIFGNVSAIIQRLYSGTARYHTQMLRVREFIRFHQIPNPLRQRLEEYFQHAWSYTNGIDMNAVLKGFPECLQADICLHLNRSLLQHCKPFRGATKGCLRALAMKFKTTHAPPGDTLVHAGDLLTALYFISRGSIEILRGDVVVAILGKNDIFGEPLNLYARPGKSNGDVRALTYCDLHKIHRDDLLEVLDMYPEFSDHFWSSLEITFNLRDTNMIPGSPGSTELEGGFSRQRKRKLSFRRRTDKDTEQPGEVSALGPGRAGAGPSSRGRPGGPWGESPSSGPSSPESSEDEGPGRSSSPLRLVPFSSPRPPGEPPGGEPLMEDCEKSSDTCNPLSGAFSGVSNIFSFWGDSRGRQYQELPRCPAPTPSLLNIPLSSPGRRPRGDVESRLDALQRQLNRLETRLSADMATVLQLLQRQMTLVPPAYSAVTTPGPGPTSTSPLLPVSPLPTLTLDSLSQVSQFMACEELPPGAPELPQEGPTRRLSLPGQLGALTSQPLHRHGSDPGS

First: Cc1nc(Sc2nnnn2C)c2c3c(sc2n1)CCC3
Second: COCCn1nnnc1C(c1cc2cc(C)ccc2[nH]c1=O)N1CCCCCC1 (stereo not drawn)
The “hERG current change (%, negative = inhibition) at 1uM” value of the first is lower: 3.42% for the first, 7.19% for the second.

Compared with `COC(=O)c1ccccc1NC(=O)Nc1cc(C)cc(C)n1`, `Cc1ccc(NC(=O)CO/N=C/c2ccccc2C)c(C)c1` is higher in “hERG current change (%, negative = inhibition) at 1uM” value: -0.329% for the first, 7.21% for the second.

Compared with `O=C(NCc1ccncc1)C(=O)Nc1nc2ccccc2s1`, `O=C(CSc1nncc2ccccc12)Nc1ccc(C(=O)O)cc1` is higher in “hERG current change (%, negative = inhibition) at 1uM” value: 1.46% for the first, 7.16% for the second.

Going from `COC(=O)CCC(=O)c1ccc(OC)c(Cl)c1` to `COc1ccc(OC)c(CNC(=O)C2CCN(C(=O)N(C)C)CC2)c1`, the “hERG current change (%, negative = inhibition) at 1uM” value rises from 7.22% to 12.7%.

First: Nc1cc(S(=O)(=O)C(F)(F)F)ccc1C(=O)O
Second: Cc1ccc(C(F)(F)F)cc1NC(N)=S
The “hERG current change (%, negative = inhibition) at 1uM” value of the first is higher: 13.3% for the first, 3.94% for the second.

First: CCCn1nc(C(=O)NC2CCCCCC2)c2ccccc2c1=O
Second: CCN1CCN(CC(=O)NC2CCCCC2)C(=O)C1=O
The “hERG current change (%, negative = inhibition) at 1uM” value of the first is lower: 0.398% for the first, 15.8% for the second.

Going from `COc1ccc(NC(=O)c2cc3ccccc3o2)cc1` to `CNC(=O)c1cc(Nc2nnc(-c3ccc(O)cc3)c3ccccc23)ccc1OC`, the “hERG current change (%, negative = inhibition) at 1uM” value rises from 6.91% to 9.01%.

Compared with `O=C(N/N=C/c1ccccc1)c1c(O)c2ccccc2[nH]c1=O`, `O=C1Nc2ccccc2C1(O)c1ccccc1` (stereo not drawn) is higher in “hERG current change (%, negative = inhibition) at 1uM” value: 3.01% for the first, 13.5% for the second.

First: CS(=O)(=O)Nc1nnc(Cc2ccccc2)s1
Second: CS(=O)(=O)NN1C(=O)c2ccccc2NC1c1cccs1 (stereo not drawn)
The “hERG current change (%, negative = inhibition) at 1uM” value of the first is lower: 7.74% for the first, 9.6% for the second.

Compared with `N#Cc1cn(Cc2ccncc2)c(=O)[nH]c1=O`, `Cc1ccc(C(=O)OCC(=O)N(CC(C)C)c2c(N)n(Cc3ccccc3)c(=O)[nH]c2=O)o1` is lower in “hERG current change (%, negative = inhibition) at 1uM” value: 17.4% for the first, 5.54% for the second.

Compared with `N#C/C(=C\c1ccccc1)c1nc2ncccc2[nH]1`, `C=CCn1c(SCc2nc3ccccc3[nH]2)nnc1-c1ccccn1` is lower in “hERG current change (%, negative = inhibition) at 1uM” value: 9.95% for the first, -10.9% for the second.

Compared with `Cc1ccc(N2C(=O)/C(=C/c3ccco3)SC2=S)cc1`, `Cc1ccc(-c2csc3ncnc(N4CCN(S(=O)(=O)c5cccs5)CC4)c23)cc1` is lower in “hERG current change (%, negative = inhibition) at 1uM” value: 14.3% for the first, 10.7% for the second.

Going from `Cc1ccc(C)c(OCCC(=O)OCC(=O)N2CCN(S(=O)(=O)c3ccc(Cl)cc3)CC2)c1` to `O=C(Cc1cccs1)N1CCN(S(=O)(=O)c2ccc(F)cc2)CC1`, the “hERG current change (%, negative = inhibition) at 1uM” value rises from -1.39% to 11.1%.

Compared with `Cc1c(/C=N/NC(=O)c2ccc3c(c2)OCO3)cnn1C`, `Cc1ccc(C(=O)OCC(=O)Nc2ccc3c(c2)OCO3)cc1S(=O)(=O)N1CCOCC1` is lower in “hERG current change (%, negative = inhibition) at 1uM” value: 7.92% for the first, 4.18% for the second.

Compared with `CC(C)(C)c1ccc(N/N=C(\C#N)S(=O)(=O)C(C)(C)C)cc1`, `CN(C)S(=O)(=O)c1ccc(NC(=O)COc2ncnc3sccc23)cc1` is lower in “hERG current change (%, negative = inhibition) at 1uM” value: 16.5% for the first, 3.56% for the second.

First: COc1cc(C2c3c(oc4c(C)cc(C)cc4c3=O)C(=O)N2Cc2cccnc2)ccc1O (stereo not drawn)
Second: Cc1ccc(C)c(N2CCN(C(=O)Cn3ncc4c([nH]c5ccc(C)cc54)c3=O)CC2)c1
The “hERG current change (%, negative = inhibition) at 1uM” value of the first is lower: 11.9% for the first, 15.8% for the second.

Going from `C=CCOc1ccc(/C=C/C(=O)OCC(=O)NCC2CCCO2)cc1` (stereo not drawn) to `C=CCOc1ccc(C2/C(=C(/O)c3ccc(OC)cc3)C(=O)C(=O)N2CCN2CCNCC2)cc1` (stereo not drawn), the “hERG current change (%, negative = inhibition) at 1uM” value rises from -3.07% to 7.98%.

Compared with `O=C1C2CCCN2C(c2ccccc2F)N1c1ccc(F)cc1` (stereo not drawn), `O=C(c1ccc(Cl)cc1)N1CCc2c([nH]c3ccccc23)C1C(F)(F)F` (stereo not drawn) is lower in “hERG current change (%, negative = inhibition) at 1uM” value: 14.2% for the first, 11.8% for the second.

Going from `Cc1c(NC(=S)Nc2cccc(Cl)c2)c(=O)n(-c2ccccc2)n1C` to `COC(=O)CNC(c1ccccc1)c1cc(C)ccc1NC(=O)c1cccc(Cl)c1` (stereo not drawn), the “hERG current change (%, negative = inhibition) at 1uM” value falls from 4.39% to -4.69%.

Compared with `CCOc1cccc(=O)c2c(C)n(CC3CCCO3)c(C)c12` (stereo not drawn), `CCOc1cc(CNCc2ccc(C(=O)O)cc2)ccc1OC.Cl` is higher in “hERG current change (%, negative = inhibition) at 1uM” value: 8.32% for the first, 11.8% for the second.

Going from `C/C(N)=C(/C#N)C(=O)COC(=O)c1cc(S(=O)(=O)N2CCCCC2)ccc1C` to `COc1cc(OC)c(NS(=O)(=O)c2ccc(Cl)c(C(=O)OC(C)C(=O)N3CCCC3)c2)cc1Cl` (stereo not drawn), the “hERG current change (%, negative = inhibition) at 1uM” value falls from 7.07% to -0.0556%.

Going from `COc1ccc(N(CC(=O)NC2CCCCC2)S(=O)(=O)c2cccnc2)cc1` to `Cc1ccc(Cl)c(OCC(=O)Nc2ccc(S(=O)(=O)NC3=NCCCCC3)cc2)c1`, the “hERG current change (%, negative = inhibition) at 1uM” value rises from 2.7% to 33.7%.

First: COc1cc2c(cc1OC)-c1cc(Nc3ccccc3)nc(=O)n1CC2
Second: COc1ccc(C(O)Cc2nc3ccccc3n2C)cc1OC (stereo not drawn)
The “hERG current change (%, negative = inhibition) at 1uM” value of the first is lower: -8.32% for the first, 16.3% for the second.

Compared with `Cn1c(SCC(=O)Nc2ccc3c(c2)oc2ccccc23)nnc1-c1ccccc1`, `O=C(Cc1cccc2ccccc12)N/N=C/c1ccc(Sc2nc3ccccc3s2)o1` is higher in “hERG current change (%, negative = inhibition) at 1uM” value: 10.9% for the first, 19% for the second.

Going from `Clc1cccc(Oc2ncccn2)c1` to `C=CCOc1ccc(C=Nc2ccc(Cl)cc2)c(O)c1`, the “hERG current change (%, negative = inhibition) at 1uM” value rises from 10.3% to 14.6%.

Compared with `Cc1ccc(NC(=S)/C(=C(\[O-])c2ccc(F)cc2)[n+]2ccccc2)cc1`, `Cc1ccc(-c2nnn(CC(=O)N3c4ccccc4CCc4ccccc43)n2)cc1` is lower in “hERG current change (%, negative = inhibition) at 1uM” value: 12.1% for the first, 7.38% for the second.

Going from `O=C1C(=O)N(CCN2CCOCC2)C(c2ccc(F)cc2)/C1=C(/O)c1ccc(S(=O)(=O)N2CCOCC2)cc1` (stereo not drawn) to `CCOC(=O)C1=C(C)N(CCCC(=O)O)C(=O)NC1c1ccccc1OS(=O)(=O)c1ccc([N+](=O)[O-])cc1` (stereo not drawn), the “hERG current change (%, negative = inhibition) at 1uM” value falls from 20.6% to 17.8%.

First: O=C(COc1cnc2ccccc2n1)NCCC1=CCCCC1
Second: O=C(CC(c1ccccc1)c1ccccc1O)NCCc1ccccc1 (stereo not drawn)
The “hERG current change (%, negative = inhibition) at 1uM” value of the first is lower: 15.8% for the first, 20.2% for the second.

Compared with `CCN(C(=O)CSc1nc2nc(C)cc(C)n2n1)C1CCS(=O)(=O)C1` (stereo not drawn), `CCOC(=O)N1CCC(N(C(=O)Nc2cccc(OC)c2)C(C)CC)CC1` (stereo not drawn) is lower in “hERG current change (%, negative = inhibition) at 1uM” value: 8.63% for the first, 4.63% for the second.

First: Cn1cnnc1SCc1ccccc1[N+](=O)[O-]
Second: CCCCSc1nnc(-c2ccc(OC)cc2)n1C
The “hERG current change (%, negative = inhibition) at 1uM” value of the first is higher: 14.8% for the first, 0.236% for the second.

First: CC(C)(C)c1nnc(NC(=O)CN2C(=O)C3C4C=CC(C4)C3C2=O)s1 (stereo not drawn)
Second: CN(C)S(=O)(=O)c1ccc(Cl)c(NC(=O)CN2C(=O)NC(C)(C3CC3)C2=O)c1 (stereo not drawn)
The “hERG current change (%, negative = inhibition) at 1uM” value of the first is higher: 11.7% for the first, 4.05% for the second.

First: CCc1noc(C)c1C(=O)OCC(=O)Nc1nc(-c2ccc(F)c(F)c2)cs1
Second: CCCCCCC(=O)Nc1nc(C)c(-c2csc(Nc3ccc(Cl)cc3)n2)s1
The “hERG current change (%, negative = inhibition) at 1uM” value of the first is lower: -2.7% for the first, 11.8% for the second.

Compared with `CC(C)(C)OC(=O)N1CCC[C@H]1C(=O)OCC(=O)Nc1cc(S(C)(=O)=O)ccc1Cl`, `CCS(=O)(=O)c1ccc2c(c1)N(S(C)(=O)=O)CC(C(=O)NCc1ccccc1OC)O2` (stereo not drawn) is lower in “hERG current change (%, negative = inhibition) at 1uM” value: 5.59% for the first, 3.2% for the second.

First: Cl.FC(F)(F)c1cc(CO[C@@H]2CCCN[C@@H]2c2ccccc2)cc(C(F)(F)F)c1
Second: CC1=C(C(N)=O)C(c2ccccc2)n2nc(-c3cccc(C)c3)nc2N1 (stereo not drawn)
The “hERG current change (%, negative = inhibition) at 1uM” value of the first is higher: 14.6% for the first, -29.2% for the second.

Going from `O=C(Nc1cc(Cl)ccc1N1CCCCC1)c1cccs1` to `Cc1ccc(NC(=O)NC2CCN(CC(=O)Nc3nccs3)CC2)cc1`, the “hERG current change (%, negative = inhibition) at 1uM” value rises from 2.38% to 2.68%.

First: COC(=O)c1nn(-c2ccccc2)c(Cl)c1/C=N/OC(=O)c1ccc(Cl)c(Cl)c1
Second: O=C(CCNC(=O)c1ccc(Br)cc1)NCCCSc1ccccc1
The “hERG current change (%, negative = inhibition) at 1uM” value of the first is higher: 13.6% for the first, -1.43% for the second.

Compared with `O=C(CCCCCCN1C(=O)c2ccccc2C1=O)Nc1nccs1`, `CC(=O)N1CCN(C(=O)CC2OC(=O)c3ccccc32)CC1` (stereo not drawn) is lower in “hERG current change (%, negative = inhibition) at 1uM” value: 16.2% for the first, 11.4% for the second.

First: CCCN(CC1CC1)C(=S)NC(=O)c1ccccc1Br
Second: CCOc1ccccc1NC(=O)NC1(C(=O)N2CCN3CCCC3C2)CCCCC1 (stereo not drawn)
The “hERG current change (%, negative = inhibition) at 1uM” value of the first is lower: 1.43% for the first, 9.04% for the second.

Going from `Cc1nc2ccc(-c3nc4ccc(N)cc4[nH]3)cc2[nH]1` to `Cc1cc(NC(=O)COn2nnc3ccc(Cl)cc32)no1`, the “hERG current change (%, negative = inhibition) at 1uM” value falls from 6.93% to 4.24%.

Compared with `CC1CC(C)CN(C(=O)COc2ccc(-c3nnco3)cc2)C1` (stereo not drawn), `COc1ccc(/C(C)=N\n2cnnc2)cc1` is higher in “hERG current change (%, negative = inhibition) at 1uM” value: 8.39% for the first, 10.6% for the second.

Compared with `CCN1C(=O)CC(NCc2ccc(S(N)(=O)=O)cc2)C1=O` (stereo not drawn), `Cc1ccc(CNC(=O)COc2ccc(S(=O)(=O)NC(C)C)cc2)cc1` is lower in “hERG current change (%, negative = inhibition) at 1uM” value: 19.5% for the first, 7.14% for the second.

Compared with `CCCOc1ccc(N2C(=O)CC(N3CCN(CCN=CC4=C(O)CC(C)(C)CC4=O)CC3)C2=O)cc1` (stereo not drawn), `O=C1NC(=O)/C(=C\c2ccc(OCc3cccc([N+](=O)[O-])c3)cc2)N1` is higher in “hERG current change (%, negative = inhibition) at 1uM” value: -4.68% for the first, 11.3% for the second.

Compared with `CCc1cccc(Nc2cnn(C34C[C@@H]5C[C@@H](CC(CC(=O)O)(C5)C3)C4)c(=O)c2Cl)c1`, `CC(=O)c1cccc(NC(=S)NNC(=O)c2ccc(C)c([N+](=O)[O-])c2)c1` is lower in “hERG current change (%, negative = inhibition) at 1uM” value: 15.3% for the first, 15% for the second.

In the case of `N#Cc1cccc(C(=O)OCC(=O)NCc2ccco2)c1`, the “hERG current change (%, negative = inhibition) at 1uM” value is reported as 13.5%.
